This series concerns dogs with occult or overt dilated cardiomyopathy (DCM). Particulars: for cTnI: n < 0.08 ng/ml; for LVIDDN: n < 1.65; for MV E/A: restrictive > 2.0; for LA/Ao: n < 1.5; for EPSS: n < 7 mm; for FS %: n > 20%; for ESVI: n < 50 ml/m2; for EDVI: n < 100 ml/m2.

Like-named read-outs stand apart in the source and are kept apart here.

Regarding `N#Cc1ccc([C@@H]2O[C@H](CO)[C@@H](O)[C@H](O)[C@H]2O)cc1Cc1ccc(C2CC2)cc1` [velagliflozin, Velagliflozin], the cTnI is, setting by setting: (case 100-006, overt DCM, velagliflozin oral 0.05 mg/kg bodyweight/day only, Visit 2 (D 45), screening visit 0.11) 0.54 ng/mL; (case 100-007, overt DCM, velagliflozin oral 0.05 mg/kg bodyweight/day only, Visit 2 (D 45), screening visit 0.27) 0.09 ng/mL. The LVIDDN by setting is: (case 100-006, overt DCM, velagliflozin oral 0.05 mg/kg bodyweight/day only, Visit 2 (D 45), screening visit 2.62) 2.37; (case 100-007, overt DCM, velagliflozin only, Visit 2 (D 45), screening visit 2.6) 2.57. For the same compound, the “MV E/A” value is, setting by setting: (case 100-006, overt DCM, velagliflozin oral 0.05 mg/kg bodyweight/day only, Visit 2 (D 45), screening visit 2.84) 2.58; (case 100-007, overt DCM, velagliflozin only, Visit 2 (D 45), screening visit 2.78) 1.87. The LA/Ao runs as follows: (case 100-006, overt DCM, velagliflozin oral 0.05 mg/kg bodyweight/day only, Visit 2 (D 45), screening visit 3.08) 2.69; (case 100-007, overt DCM, velagliflozin only, Visit 2 (D 45), screening visit 2.71) 2.6. In addition, the EPSS is 19.9 mm (case 100-006, overt DCM, velagliflozin oral 0.05 mg/kg bodyweight/day only, Visit 2 (D 45), screening visit 13.1) and 15.9 mm (case 100-007, overt DCM, velagliflozin only, Visit 2 (D 45), screening visit 13.7). Further, the FS % is given as 20.25% (case 100-006, overt DCM, velagliflozin oral 0.05 mg/kg bodyweight/day only, Visit 2 (D 45), screening visit 24.36) and 15.4% (case 100-007, overt DCM, velagliflozin only, Visit 2 (D 45), screening visit 19.3). The ESVI by setting is: (case 100-006, overt DCM, velagliflozin oral 0.05 mg/kg bodyweight/day only, Visit 2 (D 45), screening visit 147.93) 135.74 ml/m2; (case 100-007, overt DCM, velagliflozin only, Visit 2 (D 45), screening visit 167.59) 180.79 ml/m2. Besides, the EDVI worked out at 225.31 ml/m2 (case 100-006, overt DCM, velagliflozin oral 0.05 mg/kg bodyweight/day only, Visit 2 (D 45), screening visit 280.19) and 264.71 ml/m2 (case 100-007, overt DCM, velagliflozin only, Visit 2 (D 45), screening visit 273.4). Where the note is “case 100-006, overt DCM, velagliflozin oral 0.05 mg/kg bodyweight/day only, Visit 2 (D 45), screening visit 708.00, n < 500 pmol/l”, the NT-proBNP is 197.50 pmol/L. The “cardiac TnI (in words)” value (case 100-007, overt DCM, at D45) was “decreased significantly”. The “cTnI (in words)” value (case 100-007, overt DCM, at D90) is listed as “increased moderately”. Also, for the setting “case 100-007, overt DCM, at study end D101”, the creatinine and urea result is reported as “mild increase”. In addition, the “NT-proBNP (in words)” value (case 100-007, overt DCM, at the end of the study) was “elevated”.

(Values after US20240398845A1, “USE OF SGLT-2 INHIBITORS FOR THE PREVENTION AND/OR TREATMENT OF CARDIAC DISEASES IN NON-HUMAN MAMMALS EXCLUDING FELINES, IN PARTICULAR CANINES” (BOEHRINGER INGELHEIM VETMEDICA GMBH, priority 2021, published 2024).)
